According to PubChem BioAssay (NCI):
“And” between values parts separate entries of the source, which are not always exact repeats. Equal values may be shown once.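 Briefly, cells in 96-well plates were exposed to five compound concentrations for 48 h, and endpoints were estimated by linear interpolation. GI50 is the concentration that inhibits growth by half. TGI: total growth inhibition.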

System: NCI-H322M lung
Assay: NCI anticancer screen, dose series, 48 h

| SMILES | TGI | GI50 |
| --- | --- | --- |
| O=C(/C(=N/Nc1cn[nH]c(=O)c1Cl)c1ccccc1)c1ccccc1 | > 100 µM |  |
| C#CCn1cc(C=C2C(=O)NC(=S)NC2=O)c2cc(Cl)ccc21 | 4.58 µM | 1.99 µM |
| COC(=O)[C@@H]1[C@H]2CC[C@]3(C)[C@@H](OC(C)=O)CC[C@H]3[C@@H]2CC[C@H]1C1(C)SCCS1 | > 100 µM |  |
| C=CCN(c1cc(OC)c2[nH]c(C(=O)O)c(C)c2c1[N+](=O)[O-])S(C)(=O)=O | > 100 µM |  |
| O=C1C=CC(=O)c2c(O)c(N3CCN(c4ncccn4)CC3)c(Cl)c(O)c21 | 10.8 µM |  |
| Cc1nc2ccccc2n1Cc1ccc(NC(=S)Nc2ccccc2)cc1 | > 100 µM |  |
| O=C1CN(c2ccccc2)C(=O)C1C(=O)Nc1ccc(Cl)c(Cl)c1 (stereo unspecified) | 16.4 µM |  |
| COc1cc2c(c(OC)c1OC)-c1ccc(SC)c(=O)cc1[C@@H](NC(=O)c1ccc(F)cc1)CC2 | 42.4 µM | < 0.01 µM |
| Fc1ccc(OCc2ccc3nc(-c4ccccc4)c(Cl)nc3c2)cc1 | > 100 µM |  |
| Cc1cc(C)c2nccc(NCCCN(C)C)c2c1[N+](=O)[O-] | > 100 µM |  |
| O=C1c2cccnc2C(=O)c2c1nc1ccccc1c2-c1ccc2c3c(nc4ccccc42)C(=O)c2cccnc2-c13 | 4.57 µM |  |
| C/C(N=NC(=S)N1CCCCCC1)=C1\C=CC=CN1O | 98.6 µM |  |
| O=C1CCC(CCc2nc3ccccc3[nH]2)(c2ccccc2)C(=O)N1 (stereo unspecified) | > 100 µM |  |
| CC12CCC(=O)[C@@]1(C)CCCC2=O (stereo partly specified) | > 100 µM |  |
| COc1ccc(C(=C2C(=O)OC(=O)C2=C(C)C)c2ccc(OC)cc2)cc1 | > 100 µM |  |
| COc1ccc2c(c1)c(-c1cc(-c3cn(C)c4ccc(OC)cc34)[nH]n1)cn2C | > 100 µM | > 100 µM |
| O=C(NCCCn1ccnc1[N+](=O)[O-])C(=O)NCCCn1ccnc1[N+](=O)[O-] | > 100 µM |  |
| CN(C)C(=O)/N=C1\SC(=Nc2ccccc2)C(=Nc2ccccc2)N1c1ccc([N+](=O)[O-])cc1 | > 100 µM |  |
| CC(C)(C)OC(=O)n1c(Cl)c(C(=O)N=C=S)c2ccccc21 | > 100 µM | 22.4 µM |
| COC(=O)C1=C(C(=O)OC)C(C(=O)OC)C(C(=O)OC)C(C(=O)OC)(C(=O)OC)C(C(=O)OC)=C1C(=O)OC (stereo unspecified) | 39.7 µM |  |
| CCOC(=O)OC1(c2ccccc2)CCN(C)CC1 | > 100 µM |  |
| CCCC/C=C1\CCC(CN2CCCC2)C1=O (stereo unspecified) | 31.8 µM |  |
| CN1C=C(C(N)=O)C2CC(O)[C@@](NC(=O)CS(N)(=O)=O)(C(=O)O)C2C1 (stereo partly specified) | 15.4 µM |  |
| CO[C@H](C)[C@](O)(C(=O)OCC1=CCN2CC[C@@H](O)[C@H]12)C(C)C | > 100 µM |  |

| SMILES | TGI | GI50 |
| --- | --- | --- |
| COc1ccccc1Cn1c2c(c3cc(O)ccc31)C(=O)c1ccccc1C2=O | > 100 µM |  |
| N#CC1=C(N)Oc2c(sc3c(Br)cccc23)C1c1ccc(F)cc1 (stereo unspecified) | 27.7 µM | 0.7 µM |
| Cc1ccc(-c2cc(C(Cl)Cl)on2)cc1 | > 100 µM | 34.6 µM |
| C=C1c2ccccc2N(S(=O)(=O)c2ccc(C)cc2)C12CCCCC2 | > 100 µM |  |
| C[C@@H](CCO)OC1OC(COC(=O)C(C)(C)C)C(OC(=O)C(C)(C)C)C(OC(=O)C(C)(C)C)C1OC(=O)C(C)(C)C (stereo partly specified) | > 100 µM |  |
| NC(=O)c1ncn(C2OC(CO)C(O)C2O)c1NC(=S)NC(=O)c1ccccc1 (stereo unspecified) | > 100 µM |  |
| CC1=CC(O)CC(C)(C)C1/C=C/C(C)=C/C=C/C(C)=C/C=C/C=C(C)/C=C/C=C(C)/C=C/C1=C(C)CC(O)CC1(C)C (stereo unspecified) | > 100 µM |  |
| COc1ccc(-c2conc2-c2ccccc2)cc1 | > 100 µM | 0.597 µM |
| CC1CCc2sc3[nH]c(=S)n(C)c(=O)c3c2C1 (stereo unspecified) | > 100 µM |  |
| O/N=C/[C@H]1COC2(CCCCC2)O1 | > 100 µM |  |
| CC(C)(C)[Si](C)(C)OC1CCOC1(O)c1ccccn1 (stereo unspecified) | > 100 µM |  |
| O=c1c2ccccc2c(=O)c2c1sc1c(=O)c3ccc(O)cc3c(=O)c12 | 0.326 µM | 0.177 µM |
| O=C(NOC(=O)c1ccc([N+](=O)[O-])cc1)c1ccc(Cl)cc1 | > 100 µM |  |
| OCCN(CCO)c1ncnc2c1sc(=S)n2-c1ccccc1 | > 100 µM |  |
| COc1ccc(-c2nc(/C=N/Nc3cc(C)nc4ccc(Br)cc34)c(C)o2)cc1 | 3.09 µM | 1.71 µM |
| O=C(Nc1cccc(Cl)c1)c1cc(Cl)ccc1O | 6.85 µM | 0.581 µM |
| BrC(Br)([P+](c1ccccc1)(c1ccccc1)c1ccccc1)[P+](c1ccccc1)(c1ccccc1)c1ccccc1 | > 100 µM |  |
| CC(C)(C)c1cc(C(=O)O)c(C(c2ccccc2)c2ccccc2C(=O)O)c(C(=O)O)c1 (stereo unspecified) | > 100 µM |  |
| CC12O[Te]34OC1(C)C(C)(O3)C2(C)O4 | 25.4 µM |  |
| COc1ccc(-c2nn3ncccc3c2-c2ccnc(Nc3cccc(C(F)(F)F)c3)n2)cc1 | > 25 µM | 12.5 µM |
| N#CC1=C(N)NC(=S)C(C#N)C12Nc1ccccc1S2 (stereo unspecified) | 80.1 µM | 30.9 µM |
| COc1ccc(-c2oc3cc(OC)ccc3c(=O)c2O)cc1 | > 100 µM |  |
| Cc1nnc(N=Nc2c(O)[nH]c3ccccc23)[nH]c1=O | > 100 µM |  |
| O=C1Nc2ccc(Br)cc2C1=Nc1ccc(Cl)cc1 | > 100 µM |  |

| SMILES | TGI | GI50 |
| --- | --- | --- |
| COc1ccccc1-c1nccc(COc2ccccc2C[C@@H](Oc2ncnc3sc(-c4ccc(F)cc4)c(-c4ccc(OCCN5CCN(C)CC5)c(Cl)c4C)c23)C(=O)O)n1 | 3.7 µM | 1.78 µM |
| N=C(N)SCC(=O)O | > 100 µM |  |
| C[N+]1(CCCCN2c3ccccc3Sc3cc(N=[N+]=[N-])ccc32)CCN(C(=O)CCNC(=O)Cc2ccc(C(=O)c3ccccc3)cc2)CC1 | 38.6 µM |  |
| O=C1c2c(O)ccc(O)c2C(=O)c2c(NCCNCCO)ccc(NCCNCCO)c21 | 2.73 µM and 1.69 µM and 2.56 µM |  |
| COc1ccc(C2NC(=S)NC3=C2COc2ccc(F)cc23)cc1OC (stereo unspecified) | > 100 µM | 29 µM |
| Cc1ccc(S(=O)c2ccc([N+](=O)[O-])c3nonc23)cc1 (stereo unspecified) | 29.3 µM | 15.4 µM |
| Cc1ccc(NCCNCC(O)CO)c2c(=O)c3ccccc3sc12 (stereo unspecified) | 3.43 µM | 1.68 µM |
| COc1ccc2c(c1)-c1nc(=S)n(CCN(C)C)c3ccc([N+](=O)[O-])c(c13)N2 | 16.4 µM |  |
| C/C(=N\O)[C@H]1CC[C@@]2(C)[C@@H]3CC[C@H]4C(C)(C)/C(=N/O)CC[C@@]45CC35CC[C@]12C (stereo partly specified) | 11.8 µM | 3.51 µM |
| COc1cccc(C2CC(=O)Nc3cc4c(cc32)CCC4)c1OC (stereo unspecified) | > 100 µM | 6.71 µM |
| CC(C)NC(=O)OCc1c(COC(=O)NC(C)C)n(C)c2c1ccc1cc(Cl)c(Cl)cc12 | 35.5 µM |  |
| CCOC(=O)c1cc(C(=O)O)c(=O)n2c1[nH]c1ccccc12 | > 100 µM |  |
| NC1(C(=O)O)CSSC1 | 96.3 µM | 17.9 µM |
| C=C(C[N+](C)(C)C)N/N=C/c1oc(-c2ccc(OC)c(OC)c2)c(-c2ccc(OC)c(OC)c2)c1[N+](=O)[O-] | 68.3 µM |  |
| C=C[C@@]1(C)CC(=O)[C@]2(O)[C@@]3(C)[C@@H](O)CCC(C)(C)[C@@H]3[C@H](O)[C@@H](OC(C)=O)[C@@]2(C)O1 | > 100 µM |  |
| CC(C)c1ccc2c(c1)c(SC(C)(C)C)c(CC(C)(C)C(=O)O)n2Cc1ccc(Cl)cc1 | 26.4 µM | 12.6 µM |
| O=C(O)C(O)c1ccc(F)cc1 (stereo unspecified) | > 100 µM |  |
| COc1ccc(-c2nn(-c3cccc(Cl)c3)cc2/C=C2\C(=N)N(c3ccccc3)N=C2N)cc1 | > 100 µM | 7.36 µM |
| CN(C)CCN1C(=O)N(CCN(C)C)c2c3cc(O)ccc3nc3c([N+](=O)[O-])ccc1c23 | 23.9 µM |  |
| O=C(O)Cn1c[n+](NC(=O)Cc2ccccc2)cn1 | > 10 µM |  |
| Cc1cc([C@H](C)Nc2nccc(N3C(=O)OC[C@@H]3[C@H](C)F)n2)ncc1-c1ccnc(C(F)(F)F)c1 | > 100 µM | > 100 µM |
| Cc1cc(Nc2cc(N3CCN(C)CC3)nc(C#Cc3ccccc3)n2)n[nH]1 | 15.6 µM | 1.37 µM |
| Brc1ccc2[nH]cc(-c3csc(-c4c[nH]c5ccc(Br)cc45)n3)c2c1 | 5.68 µM |  |
| CCCCCc1cc(CCCC)sc1-c1ccco1 | > 100 µM |  |

| SMILES | TGI | GI50 |
| --- | --- | --- |
| O=C(O)CCSc1ncnc2nc[nH]c12 | > 100 µM |  |
| O=C(O)C(Cc1c[nH]c2ccccc12)N1C(=O)c2ccccc2C1=O (stereo unspecified) | > 100 µM |  |
| CCCCCCCCCCCCCCCCCCNC(=O)[C@H]1CSC(c2ccc(F)c(OC)c2)N1 (stereo partly specified) | > 50 µM | 1.73 µM |
| COc1ccc(CCn2ccc(=O)c(O)c2C)cc1OC | > 100 µM |  |
| CNc1ccc(N=Nc2cccc3ncccc23)cc1 | > 100 µM | > 80.8 µM |
| O=c1/c(=C/c2ccc3c(c2)OCO3)sc2nnc(Cc3ccccc3)n12 | > 100 µM |  |
| O=c1ccn([C@@H]2C=C(CO)[C@@H](O)[C@H]2O)c(=O)[nH]1 | > 625 µM |  |
| COc1ccc2nc3cc(Cl)ccc3c(Nc3ccc(O)c(CN4CCCC4)c3)c2c1 | 9.08 µM | 3.05 µM |
| Cc1nc2cc(Nc3nc(Nc4ccc(F)cc4)nc(-c4ccc(Cl)cc4)n3)ccc2n1Cc1ccccc1 | > 100 µM | > 100 µM |
| COc1cc(/C=C2/C(=O)N(C(=O)c3ccccc3O)N=C2C)ccc1O | > 100 µM |  |
| C=C1C[C@@H]2CC[C@@]34CC5O[C@H]6C(O[C@H]7CC[C@H](CC(=O)O[C@@H]8[C@@H](C)[C@@H]9O[C@@H]%10C[C@]%11(C[C@@H]%12O[C@]%13(C[C@H](C)[C@@H]%14O[C@@H]%15CC(C(COC(C)=O)OC(C)=O)O[C@@H]%15C[C@@H]%14O%13)C[C@H](C)[C@@H]%12O%11)O[C@@H]%10C[C@@H]9O[C@H]8CC8O[C@@H](CC[C@@H]1O2)C[C@@H](C)C8(O)CO)O[C@@H]7[C@@H]6O3)[C@H]5O4 (stereo partly specified) | > 0.834 µM |  |
| CCCCCCCCCCCCNC(=O)[C@H]1CSC(c2ccsc2)N1 (stereo partly specified) | 7.93 µM | 2.29 µM |
| O=C1OC(c2ccc(Cl)c3ccccc23)c2ccccc21 (stereo unspecified) | > 100 µM |  |
| Cn1c2ccccc2c2c3c(=O)[nH][nH]c(=O)c3c3c4ccccc4n(C)c3c21 | > 100 µM |  |
| C[C@@](Br)(C(=O)O)[C@H](Br)C(=O)O | > 100 µM |  |
| O=C1Cc2ccccc2CCc2ccccc21 | > 100 µM |  |
| COc1cc(/C=C2\C(=O)Nc3ccc(Br)cc32)cc(OC)c1OC | > 78.7 µM | 3.21 µM |
| C=C1C(=O)C23CC1CCC2C12CO[C@@]3(O)[C@@H](O)C1C(C)(C)C=CC2=O (stereo partly specified) | 9.94 µM and 22 µM | 10.3 µM |
| CCC1(c2ccc(OC)c(OC)c2)CCN2C(=O)C(O)CC21 (stereo unspecified) | > 100 µM |  |
| CCOC(=O)C(NC(=O)CC)(Nc1ccccc1F)C(F)(F)F (stereo unspecified) | > 100 µM |  |
| O=c1cccc2n1CC1CNCC2C1 (stereo unspecified) | > 100 µM |  |
| CC(=O)OC1Oc2cc(C)c(C)cc2-c2oc(=O)c(-c3ccccc3)cc21 (stereo unspecified) | > 100 µM | 0.601 µM |
| CC(=O)OC1COC(N2c3ccccc3[C@@H]3CCc4c([nH]c5ccccc45)[C@@H]32)C(OC(C)=O)C1OC(C)=O (mixture of isomers) | > 100 µM |  |
